According to PubChem BioAssay AID1745853 (National Center for Advancing Translational Sciences (NCATS), 2022):
“And” between values parts separate entries of the source, which are not always exact repeats. Equal values may be shown once. Some of the results follow. Further columns of the screen follow, without active or inactive calls.

Experiments:
Assay in all cases: Primary Screen for Target Class Profiling of Small Molecule Inhibitors of Methyltransferases
[1] = target: Glycine N-methyltransferase (Homo sapiens) (UniProt Q14749); conditions: purified enzyme, MTase-Glo SAH luminescence; measured here: GNMT inhibition; at 40 µM; stronger effect = lower value
Summary of the method: (§1)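 Each enzyme was assayed with SAM and its substrate. SAH formation detected by MTase-Glo luminescence; single-point 40 uM screen[…].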

[2] = target: Guanidinoacetate N-methyltransferase (Homo sapiens) (UniProt Q14353); conditions: purified enzyme, MTase-Glo SAH luminescence; measured here: GAMT inhibition; at 40 µM; stronger effect = lower value
Summary of the method: as §1

[3] = target: Histamine N-methyltransferase (Homo sapiens) (UniProt P50135); conditions: purified enzyme, MTase-Glo SAH luminescence; measured here: HNMT inhibition; at 40 µM; stronger effect = lower value
Summary of the method: as §1

[4] = target: Nicotinamide N-methyltransferase (Homo sapiens) (UniProt P40261); conditions: purified enzyme, MTase-Glo SAH luminescence; measured here: NNMT inhibition; at 40 µM; stronger effect = lower value
Summary of the method: as §1

[5] = target: Phenylethanolamine N-methyltransferase (Homo sapiens) (UniProt P11086); conditions: purified enzyme, MTase-Glo SAH luminescence; measured here: PNMT inhibition; at 40 µM; stronger effect = lower value
Summary of the method: as §1
% is scaled to controls: 0 for no effect and ±100 for the full control effect.

| SMILES | activity change, negative = inhibition [1] | activity change, negative = inhibition [2] | activity change, negative = inhibition [3] | activity change, negative = inhibition [4] | activity change, negative = inhibition [5] |
| --- | --- | --- | --- | --- | --- |
| O=C(c1cccnc1OC1CCN(Cc2ccccn2)C1)N1CCCCC1 (stereo not given) | -8.68% | -6.69% | -6.17% | -9.72% | 1.61% |
| CCC(C)NC(=O)c1ccc2c(=O)n(C)c3nnc(SCc4cccc(OC)c4)n3c2c1 (stereo not given) | 6.69% | 0% | 4.14% | 4.13% | 5.49% |
| Nc1ccccc1NC(=O)c1ccc(CNc2nccc(-c3cccnc3)n2)cc1 | -15.8% | -6.04% | -0.142% | -20% | -13.5% |
| COc1cc(-c2cc(-c3ccc(N4CCNCC4)cc3)cnc2C)cc(OC)c1OC | -21% | -5.96% | 0.768% | -30.3% | -11% |
| CCn1nc(C)c(-c2cc(C(=O)NCCc3noc(COC)n3)no2)c1C | -3.36% | -4.07% | -1.57% | -6.04% | -5.15% |
| COc1ccc(CCN2C(=O)c3cc4sccc4n3CC2(C)C(=O)NC2CCCC2)cc1OC (stereo not given) | -0.219% | -4.52% | -2.69% | -21.2% | -3.51% |
| COC(=O)[C@H]1CCCN1C(=O)[C@@H]1C[C@@H](NS(=O)(=O)c2cccs2)CCN1C(=O)COCC(=O)O | -3.6% | -2.47% | -1.13% | -4.82% | 2.2% |
| CC1(C(=O)NC2CCCCCC2)Cn2c(c(-n3cccc3)c3cc(F)ccc32)C(=O)N1Cc1cccs1 (stereo not given) | -4.76% | 3.73% | -2.5% | -4.34% | -3.84% |
| Cc1ccc(S(=O)(=O)/C=C/C#N)cc1 | -68.6% | 0.04% and 6.08% | 0.378% | -8.36% and -0.11% | 7.66% and 8.6% |
| COc1ccc(CNC(=O)O[C@H]2COCCN(c3nc4ccccc4s3)C2)cc1 | -10.9% | -5.87% | -10.5% | -11.2% | -3.24% |
| CC(C)=CCCC1(C)C2CCC1(C)C(O)C2 (stereo not given) | -13.8% | -6.66% | -5.21% | -26.7% | -2.53% |
| NC(N)=[N+]1CCc2ccccc2C1 | 7.03% | 3.4% | 10.9% | -6.7% | 1.59% |
| Cc1ccncc1C(=O)N1CCCn2ccnc2C1c1ccccc1 (stereo not given) | -3.98% | -6.47% | -1.12% | -5.49% | -19.1% |
| Cc1cccc(N2C(=O)c3cc(C4CC4)nn3CC2(C)C(=O)NC2CCCCCC2)c1C (stereo not given) | -1.09% | 4.67% | -0.56% | 5.7% | -0.283% |
| O=C(O)/C=C/c1ccc(O)c(O[C@@H]2O[C@H](CO)[C@@H](O)[C@H](O)[C@H]2O)c1 | 0% | 7.73% | 7.38% | -2.86% | 7.08% |
| Cc1ccc(Cn2c(=O)c3ccc(C(=O)NCC(C)C)cc3n3c(=O)n(CC(=O)NC(C)(C)C)nc23)cc1 | 2.11% | 5.65% | 2.7% | 1.38% | -1.52% |
| CCOc1ccccc1CNC(=O)c1cc2n(n1)CC(C)(C(=O)NC1CCCCC1)N(C)C2=O (stereo not given) | 4.95% | -2.95% | 0.532% | 1.35% | -1.77% |
| COc1ccc(CCNC(=O)CCc2nnc3n(Cc4ccc(C)cc4)c(=O)c4ccccc4n23)cc1OC | -4.59% | 1.37% | 9.51% | 12.5% | 3.41% |
| CCOC(=O)c1cc2n(n1)CC(C)(C(=O)NC1CCC(C)CC1)N(Cc1ccc(OCC)cc1)C2=O (stereo not given) | 1.58% | 0% | 4.72% | -8.41% | 1.18% |
| CCC(C(=O)NCc1ccccc1F)n1ccc2cc(S(=O)(=O)N3CCCCC3)ccc21 (stereo not given) | 2.88% | 5.44% | 3.16% | -1.39% | 0.644% |
| Cc1cc(C)n(C2CCN(c3nccc(-c4ccccn4)n3)C2)n1 (stereo not given) | -9.68% | -11.2% | -6.07% | -18.7% | -12.9% |
| CCOC(=O)c1cc2n(n1)CC(C)(C(=O)NC1CCC(C)CC1)N(c1cccc(C)c1C)C2=O (stereo not given) | 7.88% | 1.17% | 8.75% | 4.46% | 5.44% |
| CCCc1c(OCCCOc2ccc(OCC(=O)O)cc2)ccc(C(C)=O)c1O | -29.5% | 4.29% | -6.18% | -14% | 6.77% |
| Cc1ccc(Cn2c(=O)c3ccccc3n3c(CCC(=O)NCc4ccccc4Cl)nnc23)cc1 | -1.86% | 1.24% | 7.71% | -8.04% | 0.541% |
| CCCn1c(=O)c2ccc(C(=O)NC(C)CC)cc2n2c(=O)n(Cc3cccc(OC)c3)nc12 (stereo not given) | 3% | 0% | 5.62% | -2.21% | 3.24% |
| O=C(Nc1ccc(Cl)nc1)c1cccn2cncc12 | -16.2% | -5.65% | -6.4% | -12.7% | 5.54% |
| C=C(C(=O)O)C1CC(O)C2(C)CCCC(=C)C2C1 (stereo not given) | -1.26% | -5.62% | -7.37% | -20% | -1.5% |
| COc1cccc(CN2C(=O)c3cc4oc(C)cc4n3CC2(C)C(=O)NC2CCCCCC2)c1OC (stereo not given) | -0.709% | 0% | 2.81% | -2.17% | -1.78% |
| COCCN1C(=O)c2cc(-c3ccc(OC)c(OC)c3)nn2CC1(C)C(=O)NC1CCCCC1 (stereo not given) | 0.767% | 2.8% | 6.42% | 11% | 1.39% |
| CC(=O)NCCCC(=O)N1CCOC2(CCN(C(=O)NC(C)C)CC2)C1 | -4.14% | -7.55% | -5.09% | -10.7% | -6.89% |
